The chains are these.
B1: LINE1-full (parent)
chain: UACGUAGGUGGUUUUCCCCUGAUAGUGCUAAGGGGGCCUGGAAGUUUGGACUGGGCAGAGCUCAACACAGCGUGGCAAAGUGGCUGUGGCUAGACUGCCUCUCUGGAUUCCUCGUCACUCAGCAGGGCAUCUCUGAGAGAAAUGCC

The source gives no read counts; variants with many changes may rest on few reads.

From the RNAGym collection of RNA variant scans (doi:10.7554/elife.90254) come the findings set out here.

In the series the parent is B1. Kind of series: self-cleavage, relative activity (ratio to wild type); higher = more cleavage; in vitro, sequencing; the parent is a self-cleaving ribozyme.
Turning to UACGUAGGUGGUUUUCCCCUGAUAGUGCUAAGGGGGCCUAGAAGUUUGGACUGGGCAGGGCUCAACACAGCGUGGCAAAGUGGCUGUGGCUAGACUGCCACUCUGGAUUCCCCGUCACUCAGCAGGGCAUCUCUGAGAGAAAUGCC [G40A A59G U100A U112C], the self-cleavage is 0.08.
Take UACGUAGGUGGUUUUCCCCUGAUAGUGCUAAGGGGGCCCGGAAGUUUGGACUGGGCAGAGCUCAACACAGCGUGGCAAAGUGGCUGUGGCUAGACUGCCUCUCUGGAUUCCUCGUCACCCAGCAGGGCAUCUCUGAGAGGAAUGCC [U39C U119C A140G]: the self-cleavage stood at 0.
For UACGUAGGUGGUUUUCCCCUGAUAGUGCUAAGGGGGCCCGGAAGUUUGGACUGGGCAGAGCUCAACACAGCGUGGCAAAGUGGCUGUGGCUAGACUGCCUCUCUGGACUCCUCGUCACUCAGCAGGGCAUCUCAGAGAGAAAUGCC [U39C U108C U134A] the value was 1.34; for UACGUAGGUGGUUUUCCCCUGAUAGUGCUAAGGGGGCCUAGAAGUUUGGACUGGGCAGAGCUCAACACAGCGUGGCUAAGUGGCUGUGGCUAGACUGCCUCUCUGGAUUCCUCGUCACUCUGCGGGGCAUCUCUGAGAGAAAUGCC [G40A A77U A121U A124G], 0.36; for UACGUAGGUGGUUUUCCCCUGAUAGUGCUAAGGGGGCCUAGAAGUUUGGACUGGGCAGAGCUCGACACAGCGUGGCAAAGUGGCUGUGGCUAGACUGCCUCUCUGGAUUCCUCGUCACUCAGCAGGGCAUCUCUGGGAGAAGUGCC [G40A A64G A136G A142G], 0.17.
With UACGUAGGUGGUUUUCCCCUGAUAGUGCUAAGGGGGCCUAGAAGUUUGGACUGGGCAGAGCUCAACACAGCGUGGCAAAGUGGCUGUGGCUAGACUGUCUCUCUGGAUUCCUCGUCACUCAGCAGGGCAUCUCUGAGAGGAACGCC [G40A C98U A140G U143C], the self-cleavage was found to be 0.12.
Regarding UACGUAGGUGGUUUUCCCCUGAUAGUGCUAAGGGGGCCGGGAAGUUUGGACGGGGCAGAGCCCAACACAGCGUGGCAAAGUGGCUGUGGCUAGACUGCCACUCUGGAUUCCUCGUCACUCAGCAGGGCAUCUCUGAGAGAAAUGCC [U39G U52G U62C U100A], the self-cleavage was 0.
For UACGUAGGUGGUUUUCCCCUGAUAGUGCUAAGGGGGCCGGGGAGUUUGGACUGGGCAGAGCUCAACACAGCGUGGCAAAGUGGCUGUGGCUAGACUGCCUCUCUGGAUUCCUCGUCACUCAGCAGGGCAUCACUGAGAGAAAUGCC [U39G A42G U132A] the value was 1.24; for UACGUAGGUGGUUUUCCCCUGAUAGUGCUAAGGGGGCCUAGAAGUUUGGUCUGGGCAGAGCUCAACACAGCGUGGCAAAGUGGCAGUGGCUAGACUGCCUCUCUGGAUUCCUCGUCACUCAGCAGGGCAUCUCUGAGAGAAAUGCC [G40A A50U U85A], 0.04.
For UACGUAGGUGGUUUUCCCCUGAUAGUGCUAAGGGGGCCUGAAAGUUUGGACUGGGCAGAGCUCAACACAGCGUGGCAAAGUGGCUGUGGCUAGUCUGCCUCUCUGGAUUCCUCGUCACACAGCAGGGCAUCUCUGAGAGAAAUGCC [G41A A94U U119A] the value was 0.35; for UACGUAGGUGGUUUUCCCCUGAUAGUGCUAAGGGGGCCCGGAAGUUUGGACUGGGCAGAGCUCAACACAGCGUGGCAAAGUGGCUGUGGCUAGACUGCCUCUCUGGAUUCCUCGUCACUCAGCAGGGCACCUCUGAGGGAAAUGCC [U39C U130C A138G], 1.39; for UACGUAGGUGGUUUUCCCCUGAUAGUGCUAAGGGGGCCGGGUAGUUUGGACUGGGCAGAGCUCAACACAGCGUGGCAAAGAGGCUGUGGCUAGACUGCCUCUCUGGAUUCCUCGUCACUCAGCAGGGCAUCUCUGAGAGAAAUGCC [U39G A42U U81A], 1.7.
For UACGUAGGUGGUUUUCCCCUGAUAGUGCUAAGGGGGCCUGAAAGUUUGGACUGGGCAGAGCUCAACACAGCGUGGCGAAGUGGCUGUGGCCAGACUGCCUCUCUGGAUUCCUCGUCACUCAGCAGGGCACCCCUGAGAGAAAUGCC [G41A A77G U91C U130C U132C] the value was 0.
As to UACGUAGGUGGUUUUCCCCUGAUAGUGCUAAGGGGGCCCGGAAGUUUGGACUGGGCAGAGCUCAACACAGCGUGGCAAAGUGGCUGUGGCUAGACUGCCUCUCUGGAUCCCUCGUCACUCAGCUGGGCAUCUCUGUGAGAAAUGCC [U39C U109C A124U A136U], the self-cleavage was found to be 1.5.
For the variant UACGUAGGUGGUUUUCCCCUGAUAGUGCUAAGGGGGCCUGAAAGUUUGGACUGGGCAGGGCUCAACACAGCGUGGCAAAGUGGCUGUGGCUAGACUGCCUCUCUGGAUUCCUCGUCACUCAGCAGAGCAUCUCUGAGAGAGAUGCC [G41A A59G G126A A141G], the self-cleavage was 0.02.
UACGUAGGUGGUUUUCCCCUGAUAGUGCUAAGGGGGCCGGGAAGUUUGGACUGGGCAGAGCUCAACACAGCGUGGCAAAGUGGCUGUGGCUAGUCUGCCUCUCUGGAUUCCUCGUCACUCAGCAGGGCAUCUCUGAGAGAAAUGCU [U39G A94U C146U]: the self-cleavage was found to be 0.44.
As for UACGUAGGUGGUUUUCCCCUGAUAGUGCUAAGGGGGCCUUGAAGUUUGGACUGGGCAGAGCUCAACACAGCGUGGCAAAGUGGCUGUGGCUAGACUGCCUCUCUGGAUUCCCCGUCGCUCAGCAGGGCAUCUCUGAGAGAAAUGCC [G40U U112C A117G], the self-cleavage came to 2.63.
Consider UACGUAGGUGGUUUUCCCCUGAUAGUGCUAAGGGGGCCUUGAAGAUAGGACUGGGCAGAGCUCAACACAGCGUGGCAAAGUGGCUGUGGCUAGACUGCCUCUCUGGAUUCCUCGUCACUCAGCAGGGCAUCUCUGAGAGAAAUGCC [G40U U45A U47A], for which the self-cleavage turned out to be 0.97.
For UACGUAGGUGGUUUUCCCCUGAUAGUGCUAAGGGGGCCCGGAAGUUUGGACUGGGCAGAGCUCAACACAGCGUGGCAAAGUGGCUGUGGCUAGACUGCCUCUCCGGAUUCCUCGUCACUCAGCAGGGCAUCUCCGAGAGAAAUGCC [U39C U104C U134C] the value was 1.67.
